Patent publication US10299477B2 (priority 2015, dated 2019)

Tests used:
Assay type in all cases: in vivo
Botrytis cinerea = assay: Test Example B: Gray mold on tomato; conditions: for Test B control value: Gray mold on tomato
From the text: [Test Example B] Gray Mold on Tomato
Seeds of a test plant (tomato variety: Oogata Fukuju) were planted followed by cultivating until three to five first leaves (true leaves) appeared.

Alternaia brassicicola = assay: Test Example C: Alternaria sooty spot on cabbage
From the text: [Test Example C] Alternaria Sooty Spot on Cabbage
Seeds of a test plant (cabbage variety: Shikidori) were planted followed by cultivating until the cotyledons extended.

[1] = test system: Blumeria graminis f sp. hordei; assay: Test Example D: Powdery mildew on barley; conditions: for Test D control value: Powdery mildew on barley
From the text: [Test Example D] Powdery Mildew on Barley
After the sprayed dilutions were dried, conidia of Blumeria graminis f sp. hordei were inoculated to the plants by shaking off.

Puccinia recondita = assay: Test Example E: Brown rust on wheat; conditions: for Test E control value: Brown rust on wheat
From the text: [Test Example E] Brown Rust on Wheat

[2] = Alternaria sooty spot on cabbage
[3] = 250 ppm spray, preventive, control value class

SMILES	Test B control value (Botrytis cinerea)	Test C control value (Alternaia brassicicola; [2])	Test D control value [1]	Test E control value (Puccinia recondita)	other results
CCn1c(-c2c(F)cccc2F)c(-c2ccccc2F)cc(Cl)c1=O [Compound 141]	H (H shows more than 50% of control values)	H (H shows more than 50% of control values)	H (H shows more than 50% of control values)	H (H shows more than 50% of control values)	–
CN1C(=O)CCC(c2ccc(F)cc2)=C1c1c(F)cccc1F [Compound 17]	H (H shows more than 50% of control values)	L (L shows 50% or less of control values)	H (H shows more than 50% of control values)	H (H shows more than 50% of control values)	–
COc1cc(OC)cc(-c2ccc(=O)n(C)c2-c2c(F)cc(F)cc2F)c1 [Compound 134, 5-(3,5-dimethoxyphenyl)-1-methyl-6-(2,4,6-trifluorophenyl)pyridine-2(1H)-one]	H (H shows more than 50% of control values)	H (H shows more than 50% of control values)	H (H shows more than 50% of control values)	H (H shows more than 50% of control values)	–
CCn1c(-c2c(F)cccc2F)c(-c2c(Cl)c(OC)cc(OC)c2Cl)cc(Br)c1=O [Compound 83]	H (H shows more than 50% of control values)	L (L shows 50% or less of control values)	L (L shows 50% or less of control values)	H (H shows more than 50% of control values)	–
Cn1c(-c2c(F)cccc2F)c(-c2ccccc2I)cc(Br)c1=O [Compound 116]	L (L shows 50% or less of control values)	L (L shows 50% or less of control values)	H (H shows more than 50% of control values)	H (H shows more than 50% of control values)	–
CCn1c(-c2c(F)cccc2F)c(-c2ccccc2Br)cc(Br)c1=O [Compound 87]	H (H shows more than 50% of control values)	H (H shows more than 50% of control values)	H (H shows more than 50% of control values)	H (H shows more than 50% of control values)	–
CCN1C(=O)CCC(c2ccc(F)cc2)=C1c1c(F)cccc1F [Compound 18]	H (H shows more than 50% of control values)	H (H shows more than 50% of control values)	H (H shows more than 50% of control values)	H (H shows more than 50% of control values)	–
CCn1c(-c2c(F)cc(Cl)cc2F)c(-c2cc(OC)cc(OC)c2Cl)ccc1=O [Compound 121]	H (H shows more than 50% of control values)	H (H shows more than 50% of control values)	H (H shows more than 50% of control values)	H (H shows more than 50% of control values)	–
Cn1c(-c2ccncc2Cl)c(-c2ccccc2)ccc1=O [Compound 12]	L (L shows 50% or less of control values)	L (L shows 50% or less of control values)	H (H shows more than 50% of control values)	H (H shows more than 50% of control values)	–
C=CCN1C(=O)CCC(c2ccc(F)cc2Cl)=C1c1c(F)cc(OC)cc1F [Compound 43]	L (L shows 50% or less of control values)	H (H shows more than 50% of control values)	H (H shows more than 50% of control values)	H (H shows more than 50% of control values)	–
CCn1c(-c2c(F)cc(OC)cc2F)c(-c2cc(OC)cc(OC)c2Br)ccc1=O [Compound 72]	H (H shows more than 50% of control values)	H (H shows more than 50% of control values)	H (H shows more than 50% of control values)	H (H shows more than 50% of control values)	–
Cn1c(-c2c(F)cccc2F)c(-c2ccccc2Cl)ccc1=O [Compound 77]	H (H shows more than 50% of control values)	H (H shows more than 50% of control values)	H (H shows more than 50% of control values)	H (H shows more than 50% of control values)	–
CCn1c(-c2c(F)cccc2F)c(-c2c(Cl)c(OC)cc(OC)c2Cl)cc(Cl)c1=O [Compound 84]	H (H shows more than 50% of control values)	L (L shows 50% or less of control values)	L (L shows 50% or less of control values)	L (L shows 50% or less of control values)	–
CCN1C(=O)CCC(c2cc(F)ccc2Cl)=C1c1c(F)cc(F)cc1F [Compound 320, 5-(2-chloro-5-fluorophenyl)-1-ethyl-6-(2,4,6-trifluorophenyl)-3,4-dihydropyridine-2(1H)-one]	–	–	–	–	Test B control value (gray mold on tomato) (Botrytis cinerea; [3]): H (H shows more than 50% of control values); Test C control value (Alternaria sooty spot on cabbage) (Alternaia brassicicola; [3]): H (H shows more than 50% of control values); Test D control value (powdery mildew on barley) [1, 3]: H (H shows more than 50% of control values); Test E control value (brown rust on wheat) (Puccinia recondita; [3]): H (H shows more than 50% of control values)
CCn1c(-c2c(F)cccc2F)c(-c2cc(OC)ccc2Cl)cc(Br)c1=O [Compound 55]	H (H shows more than 50% of control values)	H (H shows more than 50% of control values)	H (H shows more than 50% of control values)	H (H shows more than 50% of control values)	–
CCn1c(-c2c(F)cccc2F)c(-c2cccc(OC)c2)ccc1=O [Compound 100]	H (H shows more than 50% of control values)	H (H shows more than 50% of control values)	H (H shows more than 50% of control values)	H (H shows more than 50% of control values)	–
CCn1c(-c2c(F)cccc2F)c(-c2ccc(F)cc2)ccc1=O [Compound 20]	H (H shows more than 50% of control values)	H (H shows more than 50% of control values)	H (H shows more than 50% of control values)	H (H shows more than 50% of control values)	–
CCn1c(-c2c(F)cccc2F)c(-c2cc(Br)ccc2OC)cc(Br)c1=O [Compound 125]	H (H shows more than 50% of control values)	H (H shows more than 50% of control values)	L (L shows 50% or less of control values)	H (H shows more than 50% of control values)	–
COc1ccccc1-c1ccc(=O)n(C)c1-c1c(F)cccc1F [Compound 137]	H (H shows more than 50% of control values)	H (H shows more than 50% of control values)	H (H shows more than 50% of control values)	H (H shows more than 50% of control values)	–
CCN1C(=O)CCC(c2c(F)cccc2F)=C1c1ncc(Cl)cc1Cl [Compound 4]	L (L shows 50% or less of control values)	L (L shows 50% or less of control values)	H (H shows more than 50% of control values)	H (H shows more than 50% of control values)	–
CCn1c(-c2c(F)cccc2F)c(-c2cccc(OC)c2Cl)cc(Br)c1=O [Compound 66]	H (H shows more than 50% of control values)	H (H shows more than 50% of control values)	H (H shows more than 50% of control values)	H (H shows more than 50% of control values)	–
COc1ccc(Cl)c(C2=C(c3c(F)cccc3F)N(C)C(=O)CC2)c1 [Compound 56]	H (H shows more than 50% of control values)	H (H shows more than 50% of control values)	H (H shows more than 50% of control values)	H (H shows more than 50% of control values)	–
CCn1c(-c2c(F)cc(F)cc2F)c(-c2cccc(F)c2C)cc(C)c1=O [Compound 502]	–	–	–	–	Test B (control value class) (Botrytis cinerea; gray mold on tomato, Botrytis cinerea, 250 ppm spray): H (H shows more than 50% of control values); Test C (control value class) (Alternaia brassicicola; Alternaria sooty spot on cabbage, 250 ppm spray): H (H shows more than 50% of control values); Test D (control value class) ([1]; powdery mildew on barley, 250 ppm spray): H (H shows more than 50% of control values); Test E (control value class) (Puccinia recondita; brown rust on wheat, Puccinia recondita, 250 ppm spray): H (H shows more than 50% of control values)
CCn1c(-c2c(F)cc(OC)cc2F)c(-c2ccc(F)cc2Cl)ccc1=O [Compound 35]	H (H shows more than 50% of control values)	H (H shows more than 50% of control values)	H (H shows more than 50% of control values)	H (H shows more than 50% of control values)	–
CCn1c(-c2c(F)cccc2F)c(-c2ccccc2)cc(Cl)c1=O [Compound 48]	L (L shows 50% or less of control values)	H (H shows more than 50% of control values)	L (L shows 50% or less of control values)	L (L shows 50% or less of control values)	–
Cn1c(-c2c(F)cccc2F)c(-c2ccccc2Cl)cc(Cl)c1=O [Compound 78]	H (H shows more than 50% of control values)	H (H shows more than 50% of control values)	H (H shows more than 50% of control values)	H (H shows more than 50% of control values)	–
